# PubChem BioAssay AID1240 (Sanford-Burnham Center for Chemical Genomics, 2008)
# Values joined by “and” are separate entries in the source; they are usually repeats but may differ in a detail not shown here. Equal entries are not always repeated. About 800 (1.6%) of roughly 50,000 compounds showed an effect of 50% or more. This is one part of the list.
# Molecular target: Bcl-2-like protein 10 (Homo sapiens) (UniProt Q9HD36)
# Experiment: TR3 peptide-Bcl-B binding displacers, biochemical primary FP assay, phenotype converters (AID 1240);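 further: 0% = Bcl-B with tracer peptide and DMSO and 100% = tracer peptide lacking Bcl-B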
# Conditions: GST-Bcl-B / FITC-TR3 peptide fluorescence polarization; stronger effect = higher value; compound at 3.75 mg/L
# Sequence of UniProt Q9HD36 (Q9HD36 whole entry, looked up): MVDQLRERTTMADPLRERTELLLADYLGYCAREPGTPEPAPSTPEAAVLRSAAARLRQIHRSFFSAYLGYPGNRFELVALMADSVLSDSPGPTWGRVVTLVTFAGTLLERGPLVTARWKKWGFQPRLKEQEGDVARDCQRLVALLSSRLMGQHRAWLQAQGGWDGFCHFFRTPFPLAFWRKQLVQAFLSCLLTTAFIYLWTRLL
row,SMILES,displacement
1,CC(=O)NC1=NC(=O)/C(=C\c2cn(C)c3ccccc23)S1,123%
2,COc1cc(NC(=O)COc2ccc(C)cc2C)ccc1NC(=O)c1ccco1,-3.3%
3,COc1c(Cl)cc(/C=C2/SC(=S)N(c3ccccc3)C2=O)cc1Cl,16.4%
4,Cc1cc(=O)[nH]c(SCC(=O)c2ccc(Br)cc2)n1,17.2% and -5.2%
5,O=C(Nc1ccc(NC(=O)c2ccc([N+](=O)[O-])cc2)cc1)c1ccc(Br)cc1,2.8%
6,Cc1ccc(S(=O)(=O)Oc2ccc(/C=C3/SC(=S)N(C)C3=O)cc2)cc1,-3.3%
7,OCCN(CCO)c1ccc(C(c2ccc(Cl)cc2)c2ccc(N(CCO)CCO)cc2)cc1,9.7%
8,COc1ccccc1NC(=O)c1cccc(S(=O)(=O)N2CCOCC2)c1,3.8%
9,Cc1ccc(Cl)cc1NC(=O)/C(C#N)=C\c1ccc(I)o1,-15.6%
10,COCCOC(=O)C1=C(C)NC2=C(C(=O)CC(C)(C)C2)C1c1cccc(Cl)c1 (centres undefined),1.1%
11,O=C(NCCN1CCOCC1)c1cccc(C(=O)NCCN2CCOCC2)c1,-3.8%
12,O=C1NC(=S)N/C1=C/c1ccc(-c2ccc(F)c(Cl)c2)o1,16.4%
13,O=C(Oc1cccc(/C=N/Nc2nc(N3CCOCC3)nc(N3CCOCC3)n2)c1)c1ccco1,-7.1%
14,CCOc1ccc(/C=C/C(=O)c2cccc(Br)c2)cc1,9.5%
15,COc1cccc(/C=N/N2C(=O)c3cccc4cccc(c34)C2=O)c1OC,12.9%
16,O=C(O)c1ccc(CSc2ncccn2)cc1,-16.7%
17,COc1ccc(Br)cc1CN1CCN(Cc2ccc([N+](=O)[O-])cc2)CC1,-11.1%
18,COC(=O)c1ccc(/C=C2\SC(=Nc3cccc(Cl)c3Cl)NC2=O)cc1,-1.6%
19,COC(=O)C1=C(C(=O)OC)SC(=C2C(=S)C(C)(C)N(C(=O)c3ccc(OC)cc3)c3ccc(OC)cc32)S1,-0.5%
20,O=[N+]([O-])c1cccc(NN=C2CCCC2)c1,-9.3%
21,COc1ccc2c(c1)OCC/C2=N\OC(=O)c1cc(OC)c(OC)c(OC)c1,-2.9%
22,COc1ccc(/C=C2\C(=O)N(c3cccc(C(=O)O)c3)N=C2C)cc1Br,21.9%
23,O=C(CCNc1n[nH]c(=O)[nH]c1=O)OCc1ccccc1,-0.5%

row,SMILES,displacement
1,COC(=O)C1=C(C)NC(C)=C(C(=O)OC)C1c1ccc(OC)c([N+](=O)[O-])c1,-10.3%
2,CCOc1ccc2cc(S(=O)(=O)N3CCCCC3C)ccc2c1 (centres undefined),8.8%
3,Cc1cc(=O)oc2cc(OCC(=O)c3ccc(Cl)cc3)ccc12,12.9%
4,COc1ccc(N(CC(=O)NC23CC4CC(CC(C4)C2)C3)S(=O)(=O)c2ccccc2)cc1,2.4%
5,COc1ccc(CCNC(=O)CSc2nnc(-c3cccc(F)c3)n2-c2ccccc2)cc1OC,-11.1%
6,COc1ccc(C2CC(=O)C3=C(C2)Nc2ccccc2NC3c2ccccc2Cl)cc1OC (centres undefined),9.1%
7,CC(Sc1ccc(Cl)cc1)C(=O)NCCc1ccccc1 (centres undefined),4.9%
8,COc1ccc2c(c1OC)C(=O)N(c1ccc(C)cc1)C2=O,-11.2%
9,Cc1cc(OCC(=O)Nc2ccc(C(C)C)cc2)ccc1Cl,-6.6%
10,Cc1cc(C)c(NC(=O)C(C)Sc2nc3ccc(N4C(=O)c5ccccc5C4=O)cc3s2)c(C)c1 (centres undefined),18.3%
11,c1ccc(-c2onc3ccc4c5ccccc5oc4c23)cc1,-0.7%
12,CC(C)c1ccc(NC2=NS(=O)(=O)c3ccccc32)cc1,-2.8%
13,COC(=O)CN(c1cccc(C(F)(F)F)c1)S(C)(=O)=O,11.7%
14,CC1CN(C(=O)c2cc(-c3ccccc3)nc3ccccc23)CC(C)O1 (centres undefined),-3.7%
15,O=C(NCc1ccccn1)c1cc(-c2ccccc2)nc2ccccc12,-7.8%
16,CCC1=NN2C(=N)/C(=C/c3ccc(OCc4ccccc4)cc3)C(=O)N=C2S1,48.9%
17,COc1c(Cl)cc(C(=O)Nc2ccc(-c3nc4cc(C)ccc4o3)cc2)cc1Cl,13.8%
18,CCOc1cc(Br)c(/C=C2\C(=O)NC(=O)N(c3ccc(Cl)cc3)C2=O)cc1OC,9.6%
19,OC(CN1CCCCC1)CN1CCCCC1,-14.2%
20,CCCCOc1ccc2c(=O)c(Oc3ccccc3Br)coc2c1,14.4%
21,COc1cc(/C=C2/SC(=S)NC2=O)ccc1OCc1ccc(I)cc1,-8.4%
22,CCCCNc1ncnc2c1cnn2-c1ccccc1,11.2%
23,Cc1ccc(-c2csc(NC(=O)c3ccc(S(=O)(=O)N4CCCCCC4)cc3)n2)cc1,-19%

row,SMILES,displacement
1,COc1ccc(CN2CCN(C3CCCC(C)C3)CC2)c(OC)c1 (centres undefined),2.8%
2,CCOCCOC(=O)c1cccc(NC(=O)c2ccc(-c3ccccc3)cc2)c1,-1.1%
3,CC1(c2ccccc2)CC(C)(C)N(C(=O)c2cccc(F)c2)c2ccccc21 (centres undefined),-3.6%
4,CCN(CC)CCCCCOc1ccccc1C,-4.1%
5,CCN(CC)CCCNC(=O)Cn1cnc2c1c(=O)n(C)c(=O)n2C,-12%
6,O=C(Nc1ccc2c(c1)OCCO2)C(F)(F)F,5.6%
7,CC(=O)c1ccc(NC(=O)Cc2ccc(F)cc2)cc1,-0.2%
8,CCN1C(=O)CSC1=Nc1ccc(Cl)c(Cl)c1,-4.7%
9,O=C1/C(=C/c2ccc(I)o2)SC(=S)N1c1cccc(C(F)(F)F)c1,55.7%
10,O=C(/C=C\c1ccc2c(c1)OCO2)c1ccc(Cl)cc1,-1.8%
11,CC(=O)Nc1sc2c(c1C#N)CCCC2,10.9%
12,O=C(O)c1cc(-c2ccc(/C=N/Nc3ccc(Cl)c(Cl)c3)o2)ccc1Cl,12.1%
13,CCCCN(C)Cc1c(C)[nH]c2c(Cl)cccc2c1=O,-9.6%
14,Cc1ccccc1OCCOc1ccc(/C=C2/C(=N)N3N=C(C(C)C)SC3=NC2=O)cc1,9.2%
15,CC1CN(C)C(C)C/C1=N/OC(=O)COc1ccc(Cl)cc1 (centres undefined),-2.6%
16,O=C(/C=C/c1ccccc1)Nc1ccc([N+](=O)[O-])cc1,15.6%
17,Cc1ccc(C(O)(C(=O)NCc2ccc(N(C)C)cc2)c2ccc(C)cc2)cc1,13.5%
18,CCc1ccc(NC(=O)C(=O)NC2CC(C)(C)NC(C)(C)C2)cc1,10.4%
19,O=C(COc1ccc(Cl)cc1)N1CCN(c2cccc(Cl)c2)CC1,-9.9%
20,CCOc1ccccc1N1CCN(C(=O)c2cccc(Cl)c2)CC1,-11.7%
21,CCCN=C(C)c1c(C)[nH]n(-c2nc3ccccc3s2)c1=O,68.8%
22,COc1ccc(N(CC(=O)N2CCCC2)S(C)(=O)=O)c(OC)c1,2.8%
23,O=C(O)c1ccc(OCc2ccoc2C(=O)O)cc1,3.2%
